For 153 variants, enrichment ratio results are on record in a collection of fitness landscapes (doi:10.1126/science.1257360).

The chains are these.
B1: PhoQ; a variant is named by its letters at X, in order, P23837 (parent)
chain: MKKLLRLFFPLSLRVRFLLATAAVVLVLSLAYGMVALIGYSVSFDKTTFRLLRGESNLFYTLAKWENNKLHVELPENIDKQSPTMTLIYDENGQLLWAQRDVPWLMKMIQPDWLKSNGFHEIEADVNDTSLLLSGDHSIQQQLQEVREDDDDAEMTHSVAVNVYPATSRMPKLTIVVVDTIPVELKSSYMVWSWFIYVLSANLLLVIPLLWVAAWWSLRPIEALAKEVRELEEHNRELLNPATTRELTSLVRNLNRLLKSERERYDKYRTTLTDLTHSLKTPLXXLQXXLRSLRSEKMSVSDAEPVMLEQISRISQQIGYYLHRASMRGGTLLSRELHPVAPLLDNLTSALNKVYQRKGVNISLDISPEISFVGEQNDFVEVMGNVLDNACKYCLEFVEISARQTDEHLYIVVEDDGPGIPLSKREVIFDRGQRVDTLRPGQGVGLAVAREITEQYEGKIVAGESMLGGARMEVIFGRQHSAPKDE

The other results are listed elsewhere or left out.

The variants in this assay derive from B1. Kind of assay: enrichment ratio after two sorts for PhoP signalling (ratio (wild type AVST 3.29)); higher = more functional. As to conditions: with PhoP (E. coli).
DKAD: the enrichment ratio was at most 0.25.

SCSW: the enrichment ratio was 5.69.

On to AVLQ, for which the enrichment ratio came to 4.51.

IWHF: the enrichment ratio is at most 0.25.

With LELP, the enrichment ratio is at most 0.25.

For the variant SGEF, the enrichment ratio is at most 0.25.

Consider DTHT, for which the enrichment ratio was at most 0.25.

For TLWN, the enrichment ratio was at most 0.25.

Consider YLRR, for which the enrichment ratio is at most 0.25.

On to YLKL, for which the enrichment ratio was at most 0.25.

As for PFND, the enrichment ratio was at most 0.25.

Take KLDI: the enrichment ratio was at most 0.25.

Turning to AAKH, the enrichment ratio was at most 0.25.

For the variant HRMS, the enrichment ratio is at most 0.25.

For the variant EHAG, the enrichment ratio was at most 0.25.

For EHMA, the enrichment ratio is at most 0.25.

With PCFH, the enrichment ratio was at most 0.25.

Turning to RVDH, the enrichment ratio is at most 0.25.

Regarding SLHY, the enrichment ratio was at most 0.25.

In the case of FQFY, the enrichment ratio was at most 0.25.

For the variant HCFD, the enrichment ratio was at most 0.25.

With EELG, the enrichment ratio was at most 0.25.

In the case of RKHW, the enrichment ratio is at most 0.25.

With KDRF, the enrichment ratio was at most 0.25.

On to NIIG, for which the enrichment ratio was at most 0.25.

For the variant YKIF, the enrichment ratio was at most 0.25.

Consider MYEQ, for which the enrichment ratio is at most 0.25.

As to HPDP, the enrichment ratio was at most 0.25.

For TENL, the enrichment ratio came to 6.63.

Turning to MVRS, the enrichment ratio was at most 0.25.

For NAVS, the enrichment ratio is at most 0.25.

With INAQ, the enrichment ratio was at most 0.25.

SIFA: the enrichment ratio was at most 0.25.

In the case of GHQE, the enrichment ratio was at most 0.25.

With NSET, the enrichment ratio was at most 0.25.

With QTDA, the enrichment ratio was at most 0.25.

PTDD: the enrichment ratio is at most 0.25.

Regarding VVDH, the enrichment ratio is at most 0.25.

On to KMKH, for which the enrichment ratio was at most 0.25.

Turning to IGAD, the enrichment ratio is at most 0.25.

With HGWY, the enrichment ratio was at most 0.25.

As to WLVW, the enrichment ratio was at most 0.25.

As for ALYT, the enrichment ratio is at most 0.25.

For the variant LNIQ, the enrichment ratio was at most 0.25.

Take EMNW: the enrichment ratio is at most 0.25.

On to GWGI, for which the enrichment ratio was at most 0.25.

Turning to KLVI, the enrichment ratio was at most 0.25.

GGSS: the enrichment ratio was determined as 2.96.

Turning to QAAF, the enrichment ratio is at most 0.25.

On to YSLK, for which the enrichment ratio is at most 0.25.

As to VPVS, the enrichment ratio is at most 0.25.

In the case of KNPE, the enrichment ratio is at most 0.25.

For the variant KQGC, the enrichment ratio is at most 0.25.

As for IILA, the enrichment ratio was at most 0.25.

RWFL: the enrichment ratio was at most 0.25.

As to SSIQ, the enrichment ratio was determined as 10.8.

As to TLAQ, the enrichment ratio is 6.79.

As to YFCL, the enrichment ratio was at most 0.25.

With YKEW, the enrichment ratio was at most 0.25.

For the variant EHDA, the enrichment ratio was at most 0.25.

For LILI, the enrichment ratio is at most 0.25.

In the case of FQDE, the enrichment ratio is at most 0.25.

For the variant MDPR, the enrichment ratio was at most 0.25.

For the variant VKFN, the enrichment ratio was at most 0.25.

On to PRDK, for which the enrichment ratio was at most 0.25.

PFSC: the enrichment ratio is at most 0.25.

Turning to LCVY, the enrichment ratio was at most 0.25.

Take SQMP: the enrichment ratio is at most 0.25.

Take RCAY: the enrichment ratio was at most 0.25.

As for DTIC, the enrichment ratio was at most 0.25.

Take YAII: the enrichment ratio was at most 0.25.

DFHD: the enrichment ratio is at most 0.25.

Regarding VFDG, the enrichment ratio was at most 0.25.

In the case of EHVD, the enrichment ratio was at most 0.25.

On to LWVH, for which the enrichment ratio is at most 0.25.

For QGHV, the enrichment ratio is 9.02.

Turning to NIKA, the enrichment ratio was at most 0.25.

With LDNK, the enrichment ratio was at most 0.25.

Take KGNQ: the enrichment ratio was at most 0.25.

For WDHQ, the enrichment ratio is at most 0.25.

For YTCF, the enrichment ratio was found to be 2.21.

For YAWK, the enrichment ratio was at most 0.25.

On to TKQG, for which the enrichment ratio is at most 0.25.

For the variant IRGQ, the enrichment ratio was at most 0.25.

Regarding PGIS, the enrichment ratio was at most 0.25.

WCEP: the enrichment ratio is at most 0.25.

As to IHQK, the enrichment ratio was at most 0.25.

Take DWCG: the enrichment ratio was at most 0.25.

Take ASCL: the enrichment ratio turned out to be 20.8.

With IRQN, the enrichment ratio is at most 0.25.

On to MSTK, for which the enrichment ratio is at most 0.25.

With VTPS, the enrichment ratio was at most 0.25.

On to NMIE, for which the enrichment ratio is at most 0.25.

For GNGG, the enrichment ratio was at most 0.25.

Consider RHGK, for which the enrichment ratio is at most 0.25.

On to SKYA, for which the enrichment ratio is at most 0.25.

In the case of PEYM, the enrichment ratio was at most 0.25.

EYER: the enrichment ratio was at most 0.25.

With INGK, the enrichment ratio was at most 0.25.

With PMMS, the enrichment ratio is at most 0.25.

Turning to WNEP, the enrichment ratio is at most 0.25.

For GITF, the enrichment ratio was determined as 18.4.

Take MRQN: the enrichment ratio is at most 0.25.

As to MLQW, the enrichment ratio is at most 0.25.

For VLKK, the enrichment ratio is at most 0.25.

Take FRVQ: the enrichment ratio was at most 0.25.

Consider RVWA, for which the enrichment ratio is at most 0.25.

Regarding GDLM, the enrichment ratio was at most 0.25.

YSSL: the enrichment ratio was at most 0.25.

On to YTLE, for which the enrichment ratio came out at 3.23.

As for MTLE, the enrichment ratio was found to be 5.86.

As to LWEL, the enrichment ratio was at most 0.25.

For VFVT, the enrichment ratio was at most 0.25.

Take MAVH: the enrichment ratio was at most 0.25.

With YYMK, the enrichment ratio is at most 0.25.

Regarding KNPR, the enrichment ratio was at most 0.25.

With EMML, the enrichment ratio was at most 0.25.

KLVW: the enrichment ratio was at most 0.25.

VCRT: the enrichment ratio was at most 0.25.

Turning to NNDT, the enrichment ratio was at most 0.25.

Regarding HKTI, the enrichment ratio is at most 0.25.

With SQIE, the enrichment ratio was 5.2.

Consider SQDD, for which the enrichment ratio is at most 0.25.

Turning to FHTP, the enrichment ratio was at most 0.25.

On to GQPK, for which the enrichment ratio is at most 0.25.

As for PGCW, the enrichment ratio is at most 0.25.

Take VPAI: the enrichment ratio is at most 0.25.

As for YFVW, the enrichment ratio is at most 0.25.

As for GNRL, the enrichment ratio is at most 0.25.

Take GACG: the enrichment ratio was at most 0.25.

FNIW: the enrichment ratio is at most 0.25.

Turning to APEG, the enrichment ratio was at most 0.25.

As for LQGM, the enrichment ratio is at most 0.25.

Consider TAYF, for which the enrichment ratio is 8.45.

With WHGF, the enrichment ratio is at most 0.25.

Regarding PRYH, the enrichment ratio was at most 0.25.

For WYCS, the enrichment ratio was at most 0.25.

With DLFW, the enrichment ratio was at most 0.25.

As for LINH, the enrichment ratio was at most 0.25.

For the variant QEYD, the enrichment ratio was at most 0.25.

On to KIWC, for which the enrichment ratio is at most 0.25.

As to IFHS, the enrichment ratio is at most 0.25.

With ASCS, the enrichment ratio is 4.46.

With HMGG, the enrichment ratio was at most 0.25.

Regarding AMTQ, the enrichment ratio was at most 0.25.

Take DNRD: the enrichment ratio is at most 0.25.

Consider LSPH, for which the enrichment ratio is at most 0.25.

With HRDI, the enrichment ratio is at most 0.25.

Take DRDY: the enrichment ratio is at most 0.25.

As to HYTV, the enrichment ratio was at most 0.25.

Turning to QCAQ, the enrichment ratio was at most 0.25.

For the variant DIIT, the enrichment ratio is at most 0.25.

With MRFC, the enrichment ratio was at most 0.25.
